Publication PMC4336329 (PLoS ONE, 2015)
The whole screen tested about 310,000 compounds, of which about 2,200 (0.71%) showed an effect of 50% or more. The effect is printed as a negative number. This is one part of the list.

target: human ether-à-go-go-related gene (hERG) potassium channel (human, UniProt Q12809); assay: primary screen, population patch clamp on CHO cells stably expressing hERG
Sequence (Q12809 whole entry, looked up): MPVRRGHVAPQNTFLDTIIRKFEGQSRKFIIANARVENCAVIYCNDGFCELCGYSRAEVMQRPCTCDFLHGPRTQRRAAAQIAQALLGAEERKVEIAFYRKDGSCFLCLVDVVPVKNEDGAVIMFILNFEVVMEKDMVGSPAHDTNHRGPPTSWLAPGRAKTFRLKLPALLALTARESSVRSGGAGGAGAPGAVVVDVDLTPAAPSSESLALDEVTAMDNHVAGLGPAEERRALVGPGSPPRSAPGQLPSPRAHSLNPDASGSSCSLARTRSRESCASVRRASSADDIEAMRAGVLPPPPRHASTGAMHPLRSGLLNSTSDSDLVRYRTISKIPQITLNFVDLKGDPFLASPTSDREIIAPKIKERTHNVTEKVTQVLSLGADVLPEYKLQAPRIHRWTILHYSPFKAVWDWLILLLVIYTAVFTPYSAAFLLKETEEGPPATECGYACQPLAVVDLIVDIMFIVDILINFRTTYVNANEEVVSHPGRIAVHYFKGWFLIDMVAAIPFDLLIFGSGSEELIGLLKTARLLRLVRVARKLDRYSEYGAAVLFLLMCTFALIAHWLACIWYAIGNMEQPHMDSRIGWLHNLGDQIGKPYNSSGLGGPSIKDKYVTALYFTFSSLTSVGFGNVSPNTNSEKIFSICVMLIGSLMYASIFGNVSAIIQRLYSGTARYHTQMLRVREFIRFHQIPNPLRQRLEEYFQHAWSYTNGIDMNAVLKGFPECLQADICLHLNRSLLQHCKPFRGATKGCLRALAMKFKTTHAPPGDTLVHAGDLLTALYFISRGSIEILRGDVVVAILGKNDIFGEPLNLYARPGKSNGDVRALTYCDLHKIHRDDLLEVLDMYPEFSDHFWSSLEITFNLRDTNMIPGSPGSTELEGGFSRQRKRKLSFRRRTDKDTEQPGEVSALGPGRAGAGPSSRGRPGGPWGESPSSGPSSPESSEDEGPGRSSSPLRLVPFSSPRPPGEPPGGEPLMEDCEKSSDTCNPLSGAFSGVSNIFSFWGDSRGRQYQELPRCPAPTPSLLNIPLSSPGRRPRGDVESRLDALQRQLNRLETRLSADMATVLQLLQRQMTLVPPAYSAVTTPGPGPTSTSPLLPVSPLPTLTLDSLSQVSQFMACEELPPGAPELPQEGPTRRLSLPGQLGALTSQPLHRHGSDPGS

SMILES	hERG current change (%, negative = inhibition) at 1uM [%]
CCC(=O)Nc1ccc(C(=O)OCC(=O)c2cccs2)cc1	6.88
C=C1CCN([C@H](C(=O)NCc2ccco2)C(C)C)S(=O)(=O)c2ccccc21	5.28
Cc1ccc2c(c1)N(C(=O)CCC(=O)NCc1cccnc1)CCO2	-4.63
COCCOC(=O)c1c(C)n(C)c2ccc(OC(=O)C3CC3)cc12	12.7
COc1ccc(N/N=C/c2c(O)n(-c3ccc(C)c(C)c3)c(=O)[nH]c2=O)cc1	16.4
O=C(c1cc([N+](=O)[O-])[nH]n1)N1CCSCC1	8.77
COCCNC(=O)c1cc(-c2ccc(Cl)c(Cl)c2)on1	10.3
Cc1cccn2c(=O)c(C=Nc3ccccc3)c(NCCO)nc12	6
O=C(CSc1nnc(-c2ccc(Br)cc2)n1C1CCCCC1)N1CCCC1	-6.48
COc1ccc(NC(=S)NCCN2CCC(C)CC2)cc1	4.13
N#Cc1ccc(C(=O)CSc2n[nH]c(=O)n2-c2cccnc2)cc1	12
CC(=O)c1ccc(N2CCN(C(=S)NCc3ccco3)CC2)cc1	1.83
CC(=O)O.Cc1nc2nc(CSc3nnc(C)s3)cc(=O)n2[nH]1	10.1
CCCCCCCCS(=O)CCC(=O)O (centres unmarked)	7.32
CCc1nc2cccnc2n1-c1ccc(CC(=O)NCCOC)cc1	17.5
O=C(NC1(O)C(=O)c2ccccc2C1=O)c1c(Cl)cccc1Cl	15.9
CC1CN(C(=O)CSc2nnc(-c3ccc(Cl)cc3)n2C)CC(C)O1 (centres unmarked)	-3.02
Cc1c(-n2cc(C(=O)c3ccccc3O)cc(C#N)c2=O)c(=O)n(-c2ccccc2)n1C.Cl	6.19
COc1cccc(NC(=O)CN(C)C(=O)CSc2nc3ccccc3s2)c1	5.91
Fc1cccc(Cl)c1COc1ccc(-c2nnco2)cc1	10.8
CCC(C)(C(=O)NC1CCCCC1)N(Cc1cccs1)C(=O)Cc1cccs1 (centres unmarked)	3.05
CCn1c(SCC(=O)OC2CCCCC2)nnc1-c1ccncc1	-0.573
COc1ccc(/C=c2\s/c(=C/C(=O)c3ccc(C)cc3)[nH]c2=O)c(OC)c1	13.4
Cc1ccc(S(=O)(=O)Nc2ccccc2C(=O)NCc2cccnc2)cc1	9.65
O=P(CN1CCN(c2ccccc2)CC1)(N1CCCCC1)N1CCCCC1	6.36
O=[N+]([O-])c1cc(C(F)(F)F)c(Cl)cc1N1CCN(CCO)CC1	-0.146
